The structures appear in SMILES notation. The list shows a part of the results.

In test [1] the test system is HSkMC (human skeletal muscle cells). Nature of the test: cytotoxicity call (relative viability < 0.9). The conditions noted are these: 10 µM.
In test [2] the test system is HepG2. Briefly: cytotoxicity call (relative viability < 0.9). The note with it: 10 µM.
For test [3], the system named is S. aureus RN4220. Briefly: growth inhibition call (relative growth <= 0.2). The note with it: 50 µM.

With `Cc1ccc(S(=O)(=O)Nc2ccc3c(c2)C(=O)N([C@H](C)CO)C[C@@H](C)[C@@H](CN(C)S(C)(=O)=O)O3)cc1`, the cytotoxicity call in test [1] and in test [2] was “inactive” each time. The growth inhibition call in test [3] was “inactive”.

For the compound `C[C@H](CO)N1C[C@H](C)[C@@H](CN(C)S(=O)(=O)c2ccc(Cl)cc2)Oc2c(NS(C)(=O)=O)cccc2C1=O`, the cytotoxicity call in test [1] and in test [2] was “inactive” throughout. Further, the growth inhibition call in test [3] was “inactive”.

For `C[C@@H]1CCCCO[C@H](CN(C)Cc2ccc(C(F)(F)F)cc2)[C@@H](C)CN([C@H](C)CO)C(=O)c2cc(NS(=O)(=O)c3ccccc3)ccc2O1`, the cytotoxicity call in test [1] and in test [2] was “inactive” in each case. The growth inhibition call in test [3] was “inactive”.

Regarding `C[C@@H]1CCCCO[C@H](CN(C)S(=O)(=O)c2ccc(F)cc2)[C@@H](C)CN([C@H](C)CO)C(=O)c2cc(NC(=O)Nc3ccc(C(F)(F)F)cc3)ccc2O1`, the cytotoxicity call in test [1] was “inactive”. Besides, the cytotoxicity call in test [2] was “active”. Besides, the growth inhibition call in test [3] was “inactive”.

In the case of `C[C@@H]1CCCCO[C@H](CN(C)C(=O)Nc2ccc(F)cc2)[C@@H](C)CN([C@@H](C)CO)C(=O)c2cc(NC(=O)NC3CCCCC3)ccc2O1`, the cytotoxicity call in test [1] and in test [2] was “inactive” throughout. The growth inhibition call in test [3] is “inactive”.

Take `Cc1c(C(=O)O)c(O)cc2c1C(=O)c1c(O)c(C3OC(CO)C(O)C(O)C3O)c(O)c(O)c1C2=O` (centres undefined): the cytotoxicity call in test [1] and in test [2] was “inactive” each time. In addition, the growth inhibition call in test [3] is “inactive”.

For the compound `O=C(C[C@H]1CC[C@H](NS(=O)(=O)c2ccc(F)cc2)[C@@H](CO)O1)N1CCC(Cc2ccccc2)CC1`, the cytotoxicity call in test [1] and in test [2] was “inactive” in each case. Besides, the growth inhibition call in test [3] was “inactive”.

For `COc1ccc(NC(=O)N(C)C[C@@H]2OCCCC[C@@H](C)Oc3ccc(NS(=O)(=O)c4ccc(C)cc4)cc3C(=O)N([C@@H](C)CO)C[C@@H]2C)cc1`, the cytotoxicity call in test [1] and in test [2] was “inactive” each time. In test [3], the growth inhibition call was “inactive”.

As to `C[C@@H]1CCCCO[C@@H](CN(C)C(=O)Nc2ccc(C(F)(F)F)cc2)[C@@H](C)CN([C@H](C)CO)C(=O)c2cc(NS(=O)(=O)c3ccc(Cl)cc3)ccc2O1`, the cytotoxicity call in test [1] and in test [2] was “inactive” in each case. In test [3], the growth inhibition call was “inactive”.

Turning to `C[C@@H]1CCCCO[C@H](CN(C)Cc2ccc(C(=O)O)cc2)[C@H](C)CN([C@@H](C)CO)C(=O)c2cc(NS(=O)(=O)c3ccccc3)ccc2O1`, the cytotoxicity call in test [1] and in test [2] was “inactive” throughout. In addition, the growth inhibition call in test [3] is “inactive”.

Consider `CC[C@@H](C)c1ccc(NC(=O)c2ccc(N(CC)CC)cc2)cc1`, for which the cytotoxicity call in test [1] and in test [2] was “inactive” throughout. The growth inhibition call in test [3] was “inactive”.

Regarding `Nc1ccc(/C=C/C(=O)NCc2cc3cc(-c4ccc(C(=O)N5CCC(F)(F)CC5)cc4)cc(-c4ccc(F)cc4)c3o2)cn1`, the cytotoxicity call in test [1] and in test [2] was “active” throughout. In test [3], the growth inhibition call is “inactive”.

In the case of `CCCNC(=O)Nc1ccc2c(c1)OC[C@@H](C)N(C(=O)C1CCOCC1)C[C@@H](C)[C@@H](OC)CN(C)C2=O`, the cytotoxicity call in test [1] and in test [2] was “inactive” each time. Further, the growth inhibition call in test [3] is “inactive”.

In the case of `C[C@@H]1CN([C@H](C)CO)C(=O)c2cc(NS(=O)(=O)c3ccccc3)ccc2O[C@@H](C)CCCCO[C@H]1CN(C)C(=O)c1ccccc1`, the cytotoxicity call in test [1] and in test [2] was “inactive” in each case. Besides, the growth inhibition call in test [3] is “inactive”.

Take `C[C@H]1CN([C@@H](C)CO)C(=O)c2cc(NC(=O)Cc3ccccc3)ccc2O[C@H]1CN(C)Cc1ccc(C(=O)Nc2ccccc2N)cc1`: the cytotoxicity call in test [1] and in test [2] was “inactive” throughout. For the same compound, the growth inhibition call in test [3] was “inactive”.

`CNC(=O)c1ccccc1N`: the cytotoxicity call in test [1] and in test [2] was “inactive” throughout. For the same compound, in test [3], the growth inhibition call is “inactive”.

Consider `C[C@H](CO)N1C[C@H](C)[C@@H](CN(C)C(=O)Nc2cccc3ccccc23)OCc2cnnn2CCCC1=O`, for which the cytotoxicity call in test [1] and in test [2] was “inactive” throughout. In test [3], the growth inhibition call was “inactive”.

As for `C=CCC[C@H](Cc1ccc(F)cc1)C(=O)OC[C@H](Cc1c[nH]c2ccccc12)NC(=O)[C@@H](CC=C)CC(=O)N[C@@H](CO)Cc1ccccc1`, the cytotoxicity call in test [1] and in test [2] was “active” each time. For the same compound, the growth inhibition call in test [3] was “inactive”.

In the case of `CCS(=O)(=O)Nc1ccc2c(c1)C(=O)N(C)C[C@H](OC)[C@@H](C)CN(Cc1ccccn1)[C@@H](C)CO2`, the cytotoxicity call in test [1] and in test [2] was “inactive” throughout. Moreover, the growth inhibition call in test [3] was “inactive”.

`CC(=O)NCCCS(=O)(=O)[O-].CC(=O)NCCCS(=O)(=O)[O-].[Ca+2]`: the cytotoxicity call in test [1] and in test [2] was “inactive” each time. Also, in test [3], the growth inhibition call is “inactive”.

Turning to `CCS(=O)(=O)Nc1ccc2c(c1)C(=O)N(C)C[C@H](OC)[C@@H](C)CN(CCC(F)(F)F)[C@@H](C)CO2`, the cytotoxicity call in test [1] and in test [2] was “inactive” in each case. Besides, the growth inhibition call in test [3] is “inactive”.

As for `C[C@H]1CN([C@@H](C)CO)C(=O)Cc2cc(NS(=O)(=O)c3ccc(F)cc3)ccc2O[C@@H]1CN(C)Cc1ccc(-c2ccccc2)cc1`, the cytotoxicity call in test [1] is “active”. Also, the cytotoxicity call in test [2] was “inactive”. In addition, the growth inhibition call in test [3] is “inactive”.

Consider `C[C@@H]1CCCCO[C@@H](CN(C)C(=O)Nc2ccc(F)cc2)[C@@H](C)CN([C@H](C)CO)C(=O)c2cc(NS(=O)(=O)c3ccc(Cl)cc3)ccc2O1`, for which the cytotoxicity call in test [1] and in test [2] was “inactive” in each case. In addition, the growth inhibition call in test [3] is “inactive”.

For the compound `C[C@H]1CN([C@@H](C)CO)C(=O)c2cccc(NC(=O)c3cnccn3)c2O[C@@H]1CN(C)C(=O)Nc1ccc(F)cc1`, the cytotoxicity call in test [1] and in test [2] was “inactive” in each case. In addition, in test [3], the growth inhibition call is “inactive”.

On to `C[C@H](CO)N1C[C@H](C)[C@@H](CN(C)Cc2ccc3c(c2)OCO3)Oc2ccc(NS(=O)(=O)c3cn(C)cn3)cc2C1=O`, for which the cytotoxicity call in test [1] and in test [2] was “inactive” each time. For the same compound, the growth inhibition call in test [3] was “inactive”.

For `O=c1ccc2ccccc2o1`, the cytotoxicity call in test [1] and in test [2] was “inactive” each time. Also, the growth inhibition call in test [3] was “inactive”.

In the case of `CCn1cnc(C(=O)NC)c1C(=O)NC`, the cytotoxicity call in test [1] and in test [2] was “inactive” each time. Moreover, the growth inhibition call in test [3] was “inactive”.

Regarding `Cc1ccc(S[C@H](C)C(=O)c2ccc(C)c(Cl)c2)cc1`, the cytotoxicity call in test [1] and in test [2] was “inactive” each time. Further, the growth inhibition call in test [3] is “inactive”.

Values taken from the antibiotic and cytotoxicity screens of Wong et al. (2023).
